# Some of the results follow.
# B1: PV12658A-bvu-496-32-496 (Bacteroides vulgatus) (protein)
# chain: DLDGAITTPAAVELALNGIYYSLPGNGFNVIFPTVSGSFKAGTMWRQEIVSAGNAVYYSERMLPTLSFSDATEWDADYAVIKNANFLETACNRMSDGEFSGNRRAEVLGEIAYLRALAYFNILVRYCEFWDMNSEYGVVMRNEAPSVSNALKARSSVADSYQYILDQLEIAIEKAPDWKKLSQASKEAAKALKARVLLYAGKYTEAVAAVNDAIDTNSPLPEANYGDVFDKFSTTKEILFARVFDQKDATNTSTRQQCYGNSPTKKQGYWGPTNEYVELVGDDPRADAIFSKVDSLMDSRSSAVAYNLKSVKKLLNDANDMPVIFSRVSELYLIKAEALYRSGASISEAYAPIRKLRERAGAEIILPANNEELETAIFNEWMLELSFENWHEWFAMIRFAGYTEKPDFTRLLALNKTLREALEKEYEKSEAQGDNYYQRIIDRRIDAIPSSEISSNLECKQNPGY
# Tests used:
# Test in all cases: glycan array binding signal (z-score within array); higher = stronger binding
# Settings in all cases: glycan notation: IUPAC condensed, linker removed
# [1] = molecular target: Neu5Ac(a2-6)Gal(b1-4)GlcNAc(b1-3)Gal(b1-4)GlcNAc(b1-3)GalNAc
# Outline: (§1)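 Columns mapping to the same glycan were averaged after glycan names were converted to IUPAC-condensed notation. The data come from 3228 arrays in the Consortium for Functional Glycomics database, limited to those with an available protein sequence. Binding is reported as a within-array Z-score averaged across arrays of one protein sequence and across linkers.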
# [2] = molecular target: Neu5Ac(a2-6)Gal(b1-4)GlcNAc(b1-3)Gal(b1-4)GlcNAc(b1-3)[Neu5Ac(a2-6)Gal(b1-4)GlcNAc(b1-3)Gal(b1-4)GlcNAc(b1-6)]GalNAc
# Outline: as §1
# [3] = molecular target: Neu5Ac(a2-6)Gal(b1-4)GlcNAc(b1-3)Gal(b1-4)GlcNAc(b1-6)[Gal(b1-3)]GalNAc
# Outline: as §1
# [4] = molecular target: Neu5Ac(a2-6)Gal(b1-4)GlcNAc(b1-3)Gal(b1-4)[Fuc(a1-3)]GlcNAc(b1-3)Gal(b1-4)[Fuc(a1-3)]GlcNAc
# Outline: as §1
# [5] = molecular target: Neu5Ac(a2-6)Gal(b1-4)GlcNAc(b1-3)GalNAc
# Outline: as §1
# [6] = molecular target: Neu5Ac(a2-6)Gal(b1-4)GlcNAc(b1-3)[Neu5Ac(a2-6)Gal(b1-4)GlcNAc(b1-6)]GalNAc
# Outline: as §1
# [7] = molecular target: Neu5Ac(a2-6)Gal(b1-4)GlcNAc(b1-6)GalNAc
# Outline: as §1
# [8] = molecular target: Neu5Ac(a2-6)Gal(b1-4)GlcNAc(b1-6)[Gal(b1-3)GlcNAc(b1-3)]Gal(b1-4)Glc
# Outline: as §1
# [9] = molecular target: Neu5Ac(a2-6)Gal(b1-4)GlcNAc(b1-6)[Gal(b1-3)]GalNAc
# Outline: as §1
# [10] = molecular target: Neu5Ac(a2-6)Gal(b1-4)GlcNAc6S
# Outline: as §1
# Neu5Ac(a2-6)GalNAc = molecular target: Neu5Ac(a2-6)GalNAc
# Outline: as §1
# [11] = molecular target: Neu5Ac(a2-6)GalNAc(b1-4)GlcNAc
# Outline: as §1
# [12] = molecular target: Neu5Ac(a2-6)GalNAc(b1-4)GlcNAc6S
# Outline: as §1
# [13] = molecular target: Neu5Ac(a2-6)GlcNAc(b1-4)GlcNAc
# Outline: as §1
# [14] = molecular target: Neu5Ac(a2-6)GlcNAc(b1-4)GlcNAc(b1-4)GlcNAc
# Outline: as §1
# Neu5Ac(a2-8)Neu5Ac = molecular target: Neu5Ac(a2-8)Neu5Ac
# Outline: as §1
# [15] = molecular target: Neu5Ac(a2-8)Neu5Ac(a2-3)Gal(b1-3)GalNAc(b1-4)[Neu5Ac(a2-3)]Gal(b1-4)Glc
# Outline: as §1
# [16] = molecular target: Neu5Ac(a2-8)Neu5Ac(a2-3)Gal(b1-3)GalNAc(b1-4)[Neu5Ac(a2-8)Neu5Ac(a2-3)]Gal(b1-4)Glc
# Outline: as §1
# [17] = molecular target: Neu5Ac(a2-8)Neu5Ac(a2-3)Gal(b1-4)Glc
# Outline: as §1
# [18] = molecular target: Neu5Ac(a2-8)Neu5Ac(a2-3)Gal(b1-4)GlcNAc
# Outline: as §1
# [19] = molecular target: Neu5Ac(a2-8)Neu5Ac(a2-3)[Gal(b1-3)GalNAc(b1-4)]Gal(b1-4)Glc
# Outline: as §1
# [20] = molecular target: Neu5Ac(a2-8)Neu5Ac(a2-3)[GalNAc(b1-4)]Gal(b1-4)Glc
# Outline: as §1
# [21] = molecular target: Neu5Ac(a2-8)Neu5Ac(a2-8)Neu5Ac
# Outline: as §1
# [22] = molecular target: Neu5Ac(a2-8)Neu5Ac(a2-8)Neu5Ac(a2-3)Gal(b1-4)Glc
# Outline: as §1
# [23] = molecular target: Neu5Ac(a2-8)Neu5Ac(a2-8)Neu5Ac(a2-3)[Gal(b1-3)GalNAc(b1-4)]Gal(b1-4)Glc
# Outline: as §1
# [24] = molecular target: Neu5Ac(a2-8)Neu5Ac(a2-8)Neu5Ac(a2-3)[GalNAc(b1-4)]Gal(b1-4)Glc
# Outline: as §1
# [25] = molecular target: Neu5Ac(a2-8)Neu5Ac(a2-8)Neu5Ac(a2-8)Neu5Ac(a2-3)[GalNAc(b1-4)]Gal(b1-4)Glc
# Outline: as §1
# [26] = molecular target: Neu5Ac(a2-8)Neu5Gc(a2-3)Gal(b1-4)GlcNAc
# Outline: as §1
# [27] = molecular target: Neu5Ac(b2-6)Gal(b1-4)GlcNAc
# Outline: as §1
# Neu5Ac(b2-6)GalNAc = molecular target: Neu5Ac(b2-6)GalNAc
# Outline: as §1
# [28] = molecular target: Neu5Ac9Ac(a2-3)Gal(b1-3)GlcNAc
# Outline: as §1
# [29] = molecular target: Neu5Ac9Ac(a2-3)Gal(b1-4)GlcNAc
# Outline: as §1
# [30] = molecular target: Neu5Ac9Ac(a2-6)Gal(b1-4)GlcNAc
# Outline: as §1
# [31] = molecular target: Neu5Gc(a2-3)Gal(b1-3)GlcNAc
# Outline: as §1
# [32] = molecular target: Neu5Gc(a2-3)Gal(b1-3)[Fuc(a1-4)]GlcNAc
# Outline: as §1
# Neu5Gc(a2-3)Gal(b1-4)Glc = molecular target: Neu5Gc(a2-3)Gal(b1-4)Glc
# Outline: as §1
# [33] = molecular target: Neu5Gc(a2-3)Gal(b1-4)GlcNAc
# Outline: as §1
# [34] = molecular target: Neu5Gc(a2-3)Gal(b1-4)GlcNAc(b1-3)Gal(b1-4)GlcNAc(b1-2)Man(a1-3)[Neu5Gc(a2-3)Gal(b1-4)GlcNAc(b1-3)Gal(b1-4)GlcNAc(b1-2)Man(a1-6)]Man(b1-4)GlcNAc(b1-4)GlcNAc
# Outline: as §1
# [35] = molecular target: Neu5Gc(a2-3)Gal(b1-4)[Fuc(a1-3)]GlcNAc
# Outline: as §1
# [36] = molecular target: Neu5Gc(a2-6)Gal(b1-4)GlcNAc
# Outline: as §1
# Neu5Gc(a2-6)GalNAc = molecular target: Neu5Gc(a2-6)GalNAc
# Outline: as §1
# [37] = molecular target: Neu5Gc(a2-8)Neu5Ac(a2-3)Gal(b1-4)GlcNAc
# Outline: as §1
# [38] = molecular target: Neu5Gc(a2-8)Neu5Gc(a2-3)Gal(b1-4)GlcNAc
# Outline: as §1
# [39] = molecular target: Neu5Gc(a2-8)Neu5Gc(a2-3)Gal(b1-4)GlcNAc(b1-3)Gal(b1-4)GlcNAc
# Outline: as §1
# [40] = molecular target: Neu5Gc(a2-8)Neu5Gc(a2-6)Gal(b1-4)GlcNAc
# Outline: as §1
# [41] = molecular target: Neu5Gc(b2-6)Gal(b1-4)GlcNAc
# Outline: as §1
binder,measurement,setting,value
B1,glycan array binding signal (z-score),[1],-0.476
same,glycan array binding signal (z-score),[2],-0.085
same,glycan array binding signal (z-score),[3],-0.327
same,glycan array binding signal (z-score),[4],0.013
same,glycan array binding signal (z-score),[5],-0.416
same,glycan array binding signal (z-score),[6],-0.274
same,glycan array binding signal (z-score),[7],-0.454
same,glycan array binding signal (z-score),[8],0.023
same,glycan array binding signal (z-score),[9],0.221
same,glycan array binding signal (z-score),[10],-0.402
same,glycan array binding signal (z-score),Neu5Ac(a2-6)GalNAc,-0.283
same,glycan array binding signal (z-score),[11],-0.163
same,glycan array binding signal (z-score),[12],-0.307
same,glycan array binding signal (z-score),[13],-0.473
same,glycan array binding signal (z-score),[14],-0.359
same,glycan array binding signal (z-score),Neu5Ac(a2-8)Neu5Ac,-0.175
same,glycan array binding signal (z-score),[15],-0.019
same,glycan array binding signal (z-score),[16],-0.436
same,glycan array binding signal (z-score),[17],-0.571
same,glycan array binding signal (z-score),[18],-0.152
same,glycan array binding signal (z-score),[19],-0.141
same,glycan array binding signal (z-score),[20],-0.606
same,glycan array binding signal (z-score),[21],-0.19
same,glycan array binding signal (z-score),[22],-0.363
same,glycan array binding signal (z-score),[23],0.133
same,glycan array binding signal (z-score),[24],-0.424
same,glycan array binding signal (z-score),[25],0.483
same,glycan array binding signal (z-score),[26],5.59
same,glycan array binding signal (z-score),[27],0.17
same,glycan array binding signal (z-score),Neu5Ac(b2-6)GalNAc,-0.349
same,glycan array binding signal (z-score),[28],-0.021
same,glycan array binding signal (z-score),[29],-0.15
same,glycan array binding signal (z-score),[30],-0.17
same,glycan array binding signal (z-score),[31],-0.16
same,glycan array binding signal (z-score),[32],-0.502
same,glycan array binding signal (z-score),Neu5Gc(a2-3)Gal(b1-4)Glc,-0.122
same,glycan array binding signal (z-score),[33],-0.255
same,glycan array binding signal (z-score),[34],-0.044
same,glycan array binding signal (z-score),[35],-0.405
same,glycan array binding signal (z-score),[36],-0.47
same,glycan array binding signal (z-score),Neu5Gc(a2-6)GalNAc,-0.197
same,glycan array binding signal (z-score),[37],-0.259
same,glycan array binding signal (z-score),[38],-0.398
same,glycan array binding signal (z-score),[39],-0.303
same,glycan array binding signal (z-score),[40],-0.35
same,glycan array binding signal (z-score),[41],-0.152

# — the supplement of paper PMC8728848
